# Measured values taken from the supplement of paper PMC8728848.
# This is one part of the list.
# Experiments:
# Test in all cases: glycan array binding signal (z-score within array); higher = stronger binding
# Conditions in all cases: glycan notation: IUPAC condensed, linker removed
# [1] = target: Fuc(a1-2)[Gal(a1-3)]Gal(b1-4)GlcNAc(b1-2)Man(a1-3)[Fuc(a1-2)[Gal(a1-3)]Gal(b1-4)GlcNAc(b1-2)Man(a1-6)]Man(b1-4)GlcNAc(b1-4)[Fuc(a1-6)]GlcNAc
# How it was run: (§1)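 Negative Z-scores can be read as non-binding. The Z-score is calculated within each array and then averaged across arrays of one protein sequence at different concentrations or buffers and across linkers. Arrays, 3228 in all, were curated from the Consortium for Functional Glycomics database and kept only where the protein sequence was available.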
# [2] = target: Fuc(a1-2)[Gal(a1-3)]Gal(b1-4)GlcNAc(b1-3)GalNAc
# How it was run: as §1
# [3] = target: Fuc(a1-2)[Gal(a1-3)]Gal(b1-4)GlcNAc(b1-3)[Fuc(a1-2)[Gal(a1-3)]Gal(b1-4)GlcNAc(b1-6)]GalNAc
# How it was run: as §1
# [4] = target: Fuc(a1-2)[Gal(a1-3)]Gal(b1-4)GlcNAc(b1-6)GalNAc
# How it was run: as §1
# [5] = target: Fuc(a1-2)[Gal(a1-3)]Gal(b1-4)[Fuc(a1-3)]Glc
# How it was run: as §1
# [6] = target: Fuc(a1-2)[Gal(a1-3)]Gal(b1-4)[Fuc(a1-3)]GlcNAc
# How it was run: as §1
# [7] = target: Fuc(a1-2)[Gal(a1-3)]Gal(b1-4)[Fuc(a1-3)]GlcNAc(b1-3)GalNAc
# How it was run: as §1
# [8] = target: Fuc(a1-2)[Gal(a1-4)]Gal(b1-4)GlcNAc
# How it was run: as §1
# [9] = target: Fuc(a1-2)[GalNAc(a1-3)]Gal
# How it was run: as §1
# [10] = target: Fuc(a1-2)[GalNAc(a1-3)]Gal(b1-3)GalNAc(a1-3)[Fuc(a1-2)]Gal(b1-4)GlcNAc
# How it was run: as §1
# [11] = target: Fuc(a1-2)[GalNAc(a1-3)]Gal(b1-3)GalNAc(b1-3)Gal(a1-4)Gal(b1-4)Glc
# How it was run: as §1
# [12] = target: Fuc(a1-2)[GalNAc(a1-3)]Gal(b1-3)GlcNAc
# How it was run: as §1
# [13] = target: Fuc(a1-2)[GalNAc(a1-3)]Gal(b1-3)GlcNAc(b1-2)Man(a1-3)[Fuc(a1-2)[GalNAc(a1-3)]Gal(b1-3)GlcNAc(b1-2)Man(a1-6)]Man(b1-4)GlcNAc(b1-4)GlcNAc
# How it was run: as §1
# [14] = target: Fuc(a1-2)[GalNAc(a1-3)]Gal(b1-3)GlcNAc(b1-2)Man(a1-3)[Fuc(a1-2)[GalNAc(a1-3)]Gal(b1-3)GlcNAc(b1-2)Man(a1-6)]Man(b1-4)GlcNAc(b1-4)[Fuc(a1-6)]GlcNAc
# How it was run: as §1
# [15] = target: Fuc(a1-2)[GalNAc(a1-3)]Gal(b1-3)GlcNAc(b1-3)GalNAc
# How it was run: as §1
# [16] = target: Fuc(a1-2)[GalNAc(a1-3)]Gal(b1-3)GlcNAc(b1-6)GalNAc
# How it was run: as §1
# [17] = target: Fuc(a1-2)[GalNAc(a1-3)]Gal(b1-4)Glc
# How it was run: as §1
# [18] = target: Fuc(a1-2)[GalNAc(a1-3)]Gal(b1-4)GlcNAc
# How it was run: as §1
# [19] = target: Fuc(a1-2)[GalNAc(a1-3)]Gal(b1-4)GlcNAc(b1-2)Man
# How it was run: as §1
# [20] = target: Fuc(a1-2)[GalNAc(a1-3)]Gal(b1-4)GlcNAc(b1-2)Man(a1-3)[Fuc(a1-2)[GalNAc(a1-3)]Gal(b1-4)GlcNAc(b1-2)Man(a1-6)]Man(b1-4)GlcNAc(b1-4)GlcNAc
# How it was run: as §1
# [21] = target: Fuc(a1-2)[GalNAc(a1-3)]Gal(b1-4)GlcNAc(b1-2)Man(a1-3)[Fuc(a1-2)[GalNAc(a1-3)]Gal(b1-4)GlcNAc(b1-2)Man(a1-6)]Man(b1-4)GlcNAc(b1-4)[Fuc(a1-6)]GlcNAc
# How it was run: as §1
# [22] = target: Fuc(a1-2)[GalNAc(a1-3)]Gal(b1-4)GlcNAc(b1-3)Gal(b1-4)GlcNAc
# How it was run: as §1
# [23] = target: Fuc(a1-2)[GalNAc(a1-3)]Gal(b1-4)GlcNAc(b1-3)Gal(b1-4)GlcNAc(b1-3)Gal(b1-4)GlcNAc
# How it was run: as §1
# [24] = target: Fuc(a1-2)[GalNAc(a1-3)]Gal(b1-4)GlcNAc(b1-3)GalNAc
# How it was run: as §1
# [25] = target: Fuc(a1-2)[GalNAc(a1-3)]Gal(b1-4)GlcNAc(b1-3)[Fuc(a1-2)[GalNAc(a1-3)]Gal(b1-4)GlcNAc(b1-6)]GalNAc
# How it was run: as §1
# [26] = target: Fuc(a1-2)[GalNAc(a1-3)]Gal(b1-4)GlcNAc(b1-6)GalNAc
# How it was run: as §1
# [27] = target: Fuc(a1-2)[GalNAc(a1-3)]Gal(b1-4)[Fuc(a1-3)]GlcNAc
# How it was run: as §1
# [28] = target: Fuc(a1-2)[GalNAc(a1-3)]Gal(b1-4)[Fuc(a1-3)]GlcNAc(b1-3)GalNAc
# How it was run: as §1
# [29] = target: Fuc(a1-2)[GalNAc(a1-4)]Gal(b1-4)GlcNAc
# How it was run: as §1
# [30] = target: Fuc(a1-2)[GalNAc(b1-3)]Gal
# How it was run: as §1
# [31] = target: Fuc(a1-3)GlcNAc
# How it was run: as §1
# [32] = target: Fuc(a1-3)[Gal(b1-4)]Glc6S
# How it was run: as §1
# [33] = target: Fuc(a1-3)[Gal(b1-4)]GlcNAc
# How it was run: as §1
# [34] = target: Fuc(a1-3)[Gal(b1-4)]GlcNAc(b1-2)Man
# How it was run: as §1
# [35] = target: Fuc(a1-3)[Gal(b1-4)]GlcNAc(b1-2)Man(a1-3)[Fuc(a1-3)[Gal(b1-4)]GlcNAc(b1-2)Man(a1-6)]Man(b1-4)GlcNAc(b1-4)GlcNAc
# How it was run: as §1
# [36] = target: Fuc(a1-3)[Gal(b1-4)]GlcNAc(b1-2)Man(a1-3)[Fuc(a1-3)[Gal(b1-4)]GlcNAc(b1-2)Man(a1-6)]Man(b1-4)GlcNAc(b1-4)[Fuc(a1-6)]GlcNAc
# How it was run: as §1
# [37] = target: Fuc(a1-3)[Gal(b1-4)]GlcNAc(b1-3)Gal(b1-3)[Fuc(a1-4)]GlcNAc
# How it was run: as §1
# [38] = target: Fuc(a1-3)[Gal(b1-4)]GlcNAc(b1-3)Gal(b1-4)[Fuc(a1-3)]GlcNAc
# How it was run: as §1
# [39] = target: Fuc(a1-3)[Gal(b1-4)]GlcNAc(b1-3)Gal(b1-4)[Fuc(a1-3)]GlcNAc(b1-3)Gal(b1-4)[Fuc(a1-3)]GlcNAc
# How it was run: as §1
# [40] = target: Fuc(a1-3)[Gal(b1-4)]GlcNAc(b1-3)GalNAc
# How it was run: as §1
# [41] = target: Fuc(a1-3)[Gal(b1-4)]GlcNAc(b1-6)GalNAc
# How it was run: as §1
# [42] = target: Fuc(a1-3)[Gal(b1-4)]GlcNAc(b1-6)[Gal(b1-3)GlcNAc(b1-3)]Gal(b1-4)Glc
# How it was run: as §1
# [43] = target: Fuc(a1-3)[Gal(b1-4)]GlcNAc6S
# How it was run: as §1
# [44] = target: Fuc(a1-3)[Gal3S(b1-4)]Glc
# How it was run: as §1
# [45] = target: Fuc(a1-3)[Gal3S(b1-4)]GlcNAc
# How it was run: as §1
# [46] = target: Fuc(a1-3)[Gal3S(b1-4)]GlcNAc6S
# How it was run: as §1
# [47] = target: Fuc(a1-3)[GalNAc(b1-4)]GlcNAc
# How it was run: as §1
# [48] = target: Fuc(a1-3)[GalNAc(b1-4)]GlcNAc6S
# How it was run: as §1
# [49] = target: Fuc(a1-4)GlcNAc
# How it was run: as §1
# [50] = target: Fuc(b1-3)GlcNAc
# How it was run: as §1
# [51] = target: Gal(a1-2)Gal
# How it was run: as §1
# [52] = target: Gal(a1-3)Gal
# How it was run: as §1
# [53] = target: Gal(a1-3)Gal(b1-3)GlcNAc
# How it was run: as §1
# [54] = target: Gal(a1-3)Gal(b1-3)GlcNAc(b1-2)Man
# How it was run: as §1
# [55] = target: Gal(a1-3)Gal(b1-3)GlcNAc(b1-2)Man(a1-3)[Gal(a1-3)Gal(b1-3)GlcNAc(b1-2)Man(a1-6)]Man(b1-4)GlcNAc(b1-4)GlcNAc
# How it was run: as §1
# [56] = target: Gal(a1-3)Gal(b1-3)GlcNAc(b1-3)GalNAc
# How it was run: as §1
# [57] = target: Gal(a1-3)Gal(b1-3)GlcNAc(b1-6)GalNAc
# How it was run: as §1
# [58] = target: Gal(a1-3)Gal(b1-3)[Fuc(a1-4)]GlcNAc(b1-2)Man(a1-3)[Gal(a1-3)Gal(b1-3)[Fuc(a1-4)]GlcNAc(b1-2)Man(a1-6)]Man(b1-4)GlcNAc(b1-4)GlcNAc
# How it was run: as §1
# [59] = target: Gal(a1-3)Gal(b1-4)Glc
# How it was run: as §1
# [60] = target: Gal(a1-3)Gal(b1-4)GlcNAc
# How it was run: as §1
binder,measurement,setting,value
Pwp3 (Candida glabrata) (protein) MGSSHHHHHHSSGLVPRGSHMASKNPVDFTTVCQFPDNFSKKPGFLATTARLGLWITGNSYKELLNYPGTFTLTTQQASTTTPNIQLRGTDLFTTIYGLTVYPLYLLVELQGYFVPTQSGMYTFSLTGSDDAAIIFIGNPSTFPCDAFKTWPQATANDITVTDSINPSRTLYMVKGVAYPLRIAYYNGLGNGVLNAAFTDPSGTKRTDWNGYIWQYDQCSTCTYK,glycan array binding signal (z-score),[1],-0.289
same,glycan array binding signal (z-score),[2],-0.138
same,glycan array binding signal (z-score),[3],-0.713
same,glycan array binding signal (z-score),[4],-0.219
same,glycan array binding signal (z-score),[5],0.009
same,glycan array binding signal (z-score),[6],-0.258
same,glycan array binding signal (z-score),[7],-1.06
same,glycan array binding signal (z-score),[8],0.213
same,glycan array binding signal (z-score),[9],0.148
same,glycan array binding signal (z-score),[10],-0.194
same,glycan array binding signal (z-score),[11],-0.392
same,glycan array binding signal (z-score),[12],-0.709
same,glycan array binding signal (z-score),[13],-0.178
same,glycan array binding signal (z-score),[14],-0.184
same,glycan array binding signal (z-score),[15],-0.434
same,glycan array binding signal (z-score),[16],1.57
same,glycan array binding signal (z-score),[17],-0.522
same,glycan array binding signal (z-score),[18],0.301
same,glycan array binding signal (z-score),[19],-0.236
same,glycan array binding signal (z-score),[20],3.9
same,glycan array binding signal (z-score),[21],-0.387
same,glycan array binding signal (z-score),[22],-0.031
same,glycan array binding signal (z-score),[23],0.245
same,glycan array binding signal (z-score),[24],3.75
same,glycan array binding signal (z-score),[25],-0.186
same,glycan array binding signal (z-score),[26],-0.651
same,glycan array binding signal (z-score),[27],-0.332
same,glycan array binding signal (z-score),[28],2.49
same,glycan array binding signal (z-score),[29],-1.2
same,glycan array binding signal (z-score),[30],-1.01
same,glycan array binding signal (z-score),[31],-0.392
same,glycan array binding signal (z-score),[32],5.3
same,glycan array binding signal (z-score),[33],-0.407
same,glycan array binding signal (z-score),[34],-0.319
same,glycan array binding signal (z-score),[35],-0.269
same,glycan array binding signal (z-score),[36],-0.773
same,glycan array binding signal (z-score),[37],-0.801
same,glycan array binding signal (z-score),[38],-0.348
same,glycan array binding signal (z-score),[39],-0.346
same,glycan array binding signal (z-score),[40],-0.732
same,glycan array binding signal (z-score),[41],-0.516
same,glycan array binding signal (z-score),[42],-0.587
same,glycan array binding signal (z-score),[43],0.959
same,glycan array binding signal (z-score),[44],-0.185
same,glycan array binding signal (z-score),[45],-0.35
same,glycan array binding signal (z-score),[46],-0.334
same,glycan array binding signal (z-score),[47],-0.375
same,glycan array binding signal (z-score),[48],-0.5
same,glycan array binding signal (z-score),[49],-0.367
same,glycan array binding signal (z-score),[50],-0.094
same,glycan array binding signal (z-score),[51],-0.259
same,glycan array binding signal (z-score),[52],-0.664
same,glycan array binding signal (z-score),[53],-0.233
same,glycan array binding signal (z-score),[54],-0.478
same,glycan array binding signal (z-score),[55],0.083
same,glycan array binding signal (z-score),[56],-0.665
same,glycan array binding signal (z-score),[57],-1
same,glycan array binding signal (z-score),[58],1.04
same,glycan array binding signal (z-score),[59],-0.568
same,glycan array binding signal (z-score),[60],-0.145
